# Measured values taken from publication PMC9911399, “Two distinct binding modes provide the RNA-binding protein RbFox with extraordinary sequence specificity”.
# Numbering of substitutions follows the chain as printed; changes in the protein carry UniProt numbers. The list shows a part of the results.
# T1: RBFOX1 RRM RbFoxmut (Fox-RRM*) (Homo sapiens, UniProt Q9NWB1 109-208, R118D;E147R;N151S;E152T)
# T1 sequence: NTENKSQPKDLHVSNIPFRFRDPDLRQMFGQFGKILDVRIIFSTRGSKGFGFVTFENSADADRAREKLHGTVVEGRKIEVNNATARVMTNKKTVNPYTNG
# B1: GAAAGUU (DNA:RNA)
# RNA: GGGAGACCGGAAUUCAGAUUGUCCGAAAGUUUUAAAUCCCGUCGUAGCCACCA
# DNA 1: CAATCTGAATTCCGGTCTCCC
# DNA 2: TGGTGGCTACGACGGGATT
# B2: UCUGCGA (DNA:RNA)
# RNA: GGGAGACCGGAAUUCAGAUUGUCCUCUGCGAUUAAAUCCCGUCGUAGCCACCA
# DNA 1: CAATCTGAATTCCGGTCTCCC
# DNA 2: TGGTGGCTACGACGGGATT
# B3: AUGAACU (DNA:RNA)
# RNA: B1 RNA with G25A, A26U, A27G, G29A, U30C
# DNA 1: CAATCTGAATTCCGGTCTCCC
# DNA 2: TGGTGGCTACGACGGGATT
# B4: GCACUGU (DNA:RNA)
# RNA: B1 RNA with A26C, A28C, G29U, U30G
# DNA 1: CAATCTGAATTCCGGTCTCCC
# DNA 2: TGGTGGCTACGACGGGATT
# B5: UAUAUUA (DNA:RNA)
# RNA: B1 RNA with G25U, A27U, G29U, U31A
# DNA 1: CAATCTGAATTCCGGTCTCCC
# DNA 2: TGGTGGCTACGACGGGATT
# B6: GAGUAGG (DNA:RNA)
# RNA: B1 RNA with A27G, A28U, G29A, U30G, U31G
# DNA 1: CAATCTGAATTCCGGTCTCCC
# DNA 2: TGGTGGCTACGACGGGATT
# B7: UAACCGG (DNA:RNA)
# RNA: B2 RNA with C26A, U27A, G28C, A31G
# DNA 1: CAATCTGAATTCCGGTCTCCC
# DNA 2: TGGTGGCTACGACGGGATT
# B8: UAGUAGU (DNA:RNA)
# RNA: B1 RNA with G25U, A27G, A28U, G29A, U30G
# DNA 1: CAATCTGAATTCCGGTCTCCC
# DNA 2: TGGTGGCTACGACGGGATT
# B9: UUGGGCG (DNA:RNA)
# RNA: B2 RNA with C26U, U27G, C29G, G30C, A31G
# DNA 1: CAATCTGAATTCCGGTCTCCC
# DNA 2: TGGTGGCTACGACGGGATT
# B10: UCGUUAC (DNA:RNA)
# RNA: B2 RNA with U27G, G28U, C29U, G30A, A31C
# DNA 1: CAATCTGAATTCCGGTCTCCC
# DNA 2: TGGTGGCTACGACGGGATT
# B11: GUACGUC (DNA:RNA)
# RNA: B1 RNA with A26U, A28C, U31C
# DNA 1: CAATCTGAATTCCGGTCTCCC
# DNA 2: TGGTGGCTACGACGGGATT
# B12: ACCUCCA (DNA:RNA)
# RNA: B2 RNA with U25A, U27C, G28U, G30C
# DNA 1: CAATCTGAATTCCGGTCTCCC
# DNA 2: TGGTGGCTACGACGGGATT
# B13: CUAAACA (DNA:RNA)
# RNA: B1 RNA with G25C, A26U, G29A, U30C, U31A
# DNA 1: CAATCTGAATTCCGGTCTCCC
# DNA 2: TGGTGGCTACGACGGGATT
# B14: CCACAUU (DNA:RNA)
# RNA: B1 RNA with G25C, A26C, A28C, G29A
# DNA 1: CAATCTGAATTCCGGTCTCCC
# DNA 2: TGGTGGCTACGACGGGATT
# B15: AAUACGC (DNA:RNA)
# RNA: B2 RNA with U25A, C26A, G28A, A31C
# DNA 1: CAATCTGAATTCCGGTCTCCC
# DNA 2: TGGTGGCTACGACGGGATT
# B16: UGGCCAU (DNA:RNA)
# RNA: B2 RNA with C26G, U27G, G28C, G30A, A31U
# DNA 1: CAATCTGAATTCCGGTCTCCC
# DNA 2: TGGTGGCTACGACGGGATT
# B17: GGCCAUU (DNA:RNA)
# RNA: B1 RNA with A26G, A27C, A28C, G29A
# DNA 1: CAATCTGAATTCCGGTCTCCC
# DNA 2: TGGTGGCTACGACGGGATT
# B18: UAACACA (DNA:RNA)
# RNA: B1 RNA with G25U, A28C, G29A, U30C, U31A
# DNA 1: CAATCTGAATTCCGGTCTCCC
# DNA 2: TGGTGGCTACGACGGGATT
# B19: CAAUCAA (DNA:RNA)
# RNA: B1 RNA with G25C, A28U, G29C, U30A, U31A
# DNA 1: CAATCTGAATTCCGGTCTCCC
# DNA 2: TGGTGGCTACGACGGGATT
# B20: UCUGAUU (DNA:RNA)
# RNA: B2 RNA with C29A, G30U, A31U
# DNA 1: CAATCTGAATTCCGGTCTCCC
# DNA 2: TGGTGGCTACGACGGGATT
# B21: GGACAUA (DNA:RNA)
# RNA: B1 RNA with A26G, A28C, G29A, U31A
# DNA 1: CAATCTGAATTCCGGTCTCCC
# DNA 2: TGGTGGCTACGACGGGATT
# B22: UCGCAUC (DNA:RNA)
# RNA: B2 RNA with U27G, G28C, C29A, G30U, A31C
# DNA 1: CAATCTGAATTCCGGTCTCCC
# DNA 2: TGGTGGCTACGACGGGATT
# B23: AGGCCUG (DNA:RNA)
# RNA: B1 RNA with G25A, A26G, A27G, A28C, G29C, U31G
# DNA 1: CAATCTGAATTCCGGTCTCCC
# DNA 2: TGGTGGCTACGACGGGATT
# B24: GAGGCGA (DNA:RNA)
# RNA: B2 RNA with U25G, C26A, U27G
# DNA 1: CAATCTGAATTCCGGTCTCCC
# DNA 2: TGGTGGCTACGACGGGATT
# B25: CAUCUGG (DNA:RNA)
# RNA: B2 RNA with U25C, C26A, G28C, C29U, A31G
# DNA 1: CAATCTGAATTCCGGTCTCCC
# DNA 2: TGGTGGCTACGACGGGATT
# B26: UGCACUA (DNA:RNA)
# RNA: B2 RNA with C26G, U27C, G28A, G30U
# DNA 1: CAATCTGAATTCCGGTCTCCC
# DNA 2: TGGTGGCTACGACGGGATT
# B27: AUCUAAU (DNA:RNA)
# RNA: B1 RNA with G25A, A26U, A27C, A28U, G29A, U30A
# DNA 1: CAATCTGAATTCCGGTCTCCC
# DNA 2: TGGTGGCTACGACGGGATT
# B28: UAGCAGC (DNA:RNA)
# RNA: B2 RNA with C26A, U27G, G28C, C29A, A31C
# DNA 1: CAATCTGAATTCCGGTCTCCC
# DNA 2: TGGTGGCTACGACGGGATT
# B29: ACAUUGC (DNA:RNA)
# RNA: B2 RNA with U25A, U27A, G28U, C29U, A31C
# DNA 1: CAATCTGAATTCCGGTCTCCC
# DNA 2: TGGTGGCTACGACGGGATT
# B30: CUCAUUU (DNA:RNA)
# RNA: B1 RNA with G25C, A26U, A27C, G29U
# DNA 1: CAATCTGAATTCCGGTCTCCC
# DNA 2: TGGTGGCTACGACGGGATT
# B31: GGUUUCA (DNA:RNA)
# RNA: B2 RNA with U25G, C26G, G28U, C29U, G30C
# DNA 1: CAATCTGAATTCCGGTCTCCC
# DNA 2: TGGTGGCTACGACGGGATT
# Molecular target: T1, RBFOX1 RRM RbFoxmut (Fox-RRM*)
# Test: EMSA; HiTS-Eq, 1 nM pool, 10 min; buffer printed only for the single-RNA assays: 10 mM Tris pH 7.5, 150 mM NaCl, 3.4 mM EDTA, 0.001% NP-40, 30 C
# Conditions: tags: His6 N-terminal (pET28a); label: 5' 32P
# How it was run: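 Purified wild-type or mutant RbFox RRM at increasing concentrations was equilibrated with 1 nM of 5′-radiolabelled RNA carrying 7 randomized nucleotides for 10 min in 50 µL. Unbound RNA was separated by 8% native PAGE and sequenced. Relative association constants came from read-count changes of each RNA species compared with the control reaction, normalised to the cognate motif.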
row,Binder,binding signal
1,B1,0.0785 KA relative to UGCAUGU
2,B2,0.11 KA relative to UGCAUGU
3,B3,0.114 KA relative to UGCAUGU
4,B4,0.102 KA relative to UGCAUGU
5,B5,0.133 KA relative to UGCAUGU
6,B6,0.0977 KA relative to UGCAUGU
7,B7,0.0583 KA relative to UGCAUGU
8,B8,0.121 KA relative to UGCAUGU
9,B9,0.131 KA relative to UGCAUGU
10,B10,0.0803 KA relative to UGCAUGU
11,B11,0.116 KA relative to UGCAUGU
12,B12,0.0758 KA relative to UGCAUGU
13,B13,0.0796 KA relative to UGCAUGU
14,B14,0.109 KA relative to UGCAUGU
15,B15,0.104 KA relative to UGCAUGU
16,B16,0.089 KA relative to UGCAUGU

row,Binder,binding signal
1,B17,0.0688 KA relative to UGCAUGU
2,B18,0.0818 KA relative to UGCAUGU
3,B19,0.0625 KA relative to UGCAUGU
4,B20,0.0624 KA relative to UGCAUGU
5,B21,0.0852 KA relative to UGCAUGU
6,B22,0.597 KA relative to UGCAUGU
7,B23,0.19 KA relative to UGCAUGU
8,B24,0.0608 KA relative to UGCAUGU
9,B25,0.101 KA relative to UGCAUGU
10,B26,0.11 KA relative to UGCAUGU
11,B27,0.118 KA relative to UGCAUGU
12,B28,0.0788 KA relative to UGCAUGU
13,B29,0.126 KA relative to UGCAUGU
14,B30,0.101 KA relative to UGCAUGU
15,B31,0.196 KA relative to UGCAUGU
